The campaign covered roughly 110,000 compounds. About 230 (0.21%) showed an effect of 50% or more. Some of the results follow.
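Note: 30 min substrate incubation versus DMSO and 10 µM JCP410 controls.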

In the assay the target is DPAP1 (Plasmodium falciparum, UniProt Q8IIJ9). Put plainly: primary screen, percent inhibition; read by cleavage of a fluorogenic dipeptide substrate; higher = more effect of the substance. More on the design: species or system P. falciparum D10 trophozoite lysates; single well.
Chain of DPAP1 (Q8IIJ9 whole entry, looked up): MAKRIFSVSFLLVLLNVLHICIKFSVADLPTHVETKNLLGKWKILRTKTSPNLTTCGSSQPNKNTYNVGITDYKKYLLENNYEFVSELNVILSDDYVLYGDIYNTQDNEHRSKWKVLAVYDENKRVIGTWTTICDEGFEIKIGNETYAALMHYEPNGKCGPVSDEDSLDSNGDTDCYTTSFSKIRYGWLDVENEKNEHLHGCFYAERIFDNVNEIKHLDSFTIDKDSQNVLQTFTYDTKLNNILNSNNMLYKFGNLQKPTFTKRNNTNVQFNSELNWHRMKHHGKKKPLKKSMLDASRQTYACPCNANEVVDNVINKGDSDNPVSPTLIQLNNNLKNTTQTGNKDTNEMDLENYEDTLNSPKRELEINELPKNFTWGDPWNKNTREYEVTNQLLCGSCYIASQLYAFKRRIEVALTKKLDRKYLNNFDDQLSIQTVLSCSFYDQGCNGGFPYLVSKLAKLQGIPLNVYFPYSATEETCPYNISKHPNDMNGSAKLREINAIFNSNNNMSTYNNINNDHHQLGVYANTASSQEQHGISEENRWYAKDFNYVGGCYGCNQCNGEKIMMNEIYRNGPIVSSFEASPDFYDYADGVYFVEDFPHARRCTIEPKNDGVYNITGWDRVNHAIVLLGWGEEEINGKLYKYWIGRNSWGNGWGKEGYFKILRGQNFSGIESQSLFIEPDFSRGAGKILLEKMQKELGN
`O=S(=O)(Nc1ccc2c(c1)OCO2)c1ccc2c(c1)OCCO2`: the “% Inhibition @ 10 uM” value is reported as -5.6%.

For `COc1cc(C=O)cc(OC)c1OCc1ccc(F)cc1`, the “% Inhibition @ 10 uM” value is -6.84%.

On to `COc1ccc(C(=O)Nc2ccc(S(=O)(=O)N3CCCCCC3)cc2)cc1`, for which the “% Inhibition @ 10 uM” value was -1.52%.

With `COc1cc(Br)cc(/C=C2/SC(=O)N(C(C)C)C2=O)c1O`, the “% Inhibition @ 10 uM” value is reported as 5.39%.

As to `COc1ccc(CNC(=O)C2CCN(S(=O)(=O)c3cccc4nonc34)CC2)cc1`, the “% Inhibition @ 10 uM” value turned out to be 8.91%.

Turning to `COc1ccc(CC(=O)Nc2ccc(F)cc2F)cc1`, the “% Inhibition @ 10 uM” value was -1.25%.

Take `Cc1ccccc1-n1c(C)nc2sccc2c1=O`: the “% Inhibition @ 10 uM” value is recorded as -7.43%.

Regarding `CCc1ccccc1NC(=O)CN1CCCCC1`, the “% Inhibition @ 10 uM” value was -1.55%.

In the case of `NC(=O)CCSc1ccc(Cl)cc1`, the “% Inhibition @ 10 uM” value is 3.82%.

For the molecule `Cc1nc(Oc2ccccc2)cc(-n2ncc(C#N)c2N)n1`, the “% Inhibition @ 10 uM” value is reported as -2.77%.

`Cc1ccc(C(=O)N/C(=C/c2ccccc2)C(=O)NC(C)C(=O)O)cc1` (stereo not shown): the “% Inhibition @ 10 uM” value was -1.52%.

Take `Cc1ccc2c(C(=O)CNc3nccs3)c(C)[nH]c2c1`: the “% Inhibition @ 10 uM” value is 3.47%.

As to `Cc1ccc(-c2cc(C(=O)NCc3ccc4c(c3)OCO4)c3ccccc3n2)o1`, the “% Inhibition @ 10 uM” value is recorded as -3.72%.

With `O=C(Nc1nn2c(-c3ccco3)nnc2s1)c1ccc(F)cc1`, the “% Inhibition @ 10 uM” value came to 0.00665%.

Take `Cc1cccc2c(O)c(NC(=O)N3CCC(C(N)=O)CC3)cnc12`: the “% Inhibition @ 10 uM” value was -4.91%.

In the case of `Cc1cccc(S(=O)(=O)Nc2ccc(-c3cn4ccsc4n3)cc2)c1`, the “% Inhibition @ 10 uM” value was -4.65%.

Consider `Oc1ccc(CN2CCN(c3cccc(C(F)(F)F)c3)CC2)cc1`, for which the “% Inhibition @ 10 uM” value is recorded as -3.56%.

As to `CC1CCCC(C)N1CCNC(=O)C1CCN(S(=O)(=O)N2CCCCC2)CC1` (stereo not shown), the “% Inhibition @ 10 uM” value is -10.9%.

Regarding `COc1ccc(CNC2CCSC2)c(OC)c1` (stereo not shown), the “% Inhibition @ 10 uM” value was found to be 2.99%.

For the molecule `COc1ccc(C)cc1-n1nnc(-c2nsc(NC(=O)c3ccc(C)c(C)c3)n2)c1C`, the “% Inhibition @ 10 uM” value was -0.656%.

For the molecule `O=C(NCCc1n[nH]c(CCN2C(=O)c3ccccc3C2=O)n1)c1ccccc1`, the “% Inhibition @ 10 uM” value is -6.71%.

Turning to `COC(=O)CCC(=O)Nc1ccc([N+](=O)[O-])cc1Br`, the “% Inhibition @ 10 uM” value was -5.51%.

Regarding `CC(c1ccccc1)N1C(=O)NC(=O)/C(=C/c2coc3ccccc3c2=O)C1=O` (stereo not shown), the “% Inhibition @ 10 uM” value is given as -2.19%.

With `O=C(NCCSCc1ccccc1)c1cccnc1S`, the “% Inhibition @ 10 uM” value amounted to 13.1%.

Turning to `CCOC(=O)c1[nH]c(C)c(C(=O)NCCN2CCCCCC2)c1C`, the “% Inhibition @ 10 uM” value is recorded as -1.06%.

As for `O=C(NC12CC3CC(CC(C3)C1)C2)N1CCC(CN2CCOCC2)CC1`, the “% Inhibition @ 10 uM” value was found to be 5.14%.

In the case of `O=C(NCc1ccc2c(c1)OCO2)C1COc2ccccc2O1` (stereo not shown), the “% Inhibition @ 10 uM” value is listed as -1.52%.

Regarding `CC(C)(C)c1ccc(C(=O)N/C(=C\c2cccs2)C(=O)Nc2ccc(S(N)(=O)=O)cc2)cc1`, the “% Inhibition @ 10 uM” value is reported as 4.32%.

Values taken from article PMC6919601, “Identification of Plasmodium dipeptidyl aminopeptidase allosteric inhibitors by high throughput screening” (PLoS ONE, 2019).
